# Test results reported in PubChem BioAssay AID686971 (National Center for Advancing Translational Sciences (NCATS), 2013).
# About 7,500 (2.1%) of roughly 360,000 compounds were called active. Inconclusive results, whose numbers are uncertain, are shown with a selection of clear calls. Calls follow the shape of the dose curve; as a rule, active = well fitted cell-killing curve with a large enough effect; inconclusive = small, poorly fitted or top-dose-only effect, or effect the other way, or another doubt; inactive = no such curve, though single readings can be large or run the other way. No potency is given beside an inconclusive call; the fits are too rough.
# Test: qHTS for induction of synthetic lethality in tumor cells producing 2HG: qHTS for the HT-1080-IDH1KD cell line;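 as to activity, negative = toxicity: 0% = DMSO wells and -100% = cell-free medium wells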
# Details: HT-1080 IDH1 knockdown viability, ATP luminescence, 48 h; activity, negative = toxicity: at 46.1 µM (top of the series) unless noted
# In short: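 Luminescent ATP read-out (CellTiter-Glo, 10 min at room temperature) after 48 h compound exposure at 37 °C gave viability of IDH1-knockdown HT-1080 cells. Activity was normalised to DMSO and cell-free wells, then fitted as concentration-response curves.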
# Potency is read from the fitted curve at half-maximal effect; tags tell the direction and shape of the fitted curve.
SMILES,Potency,"activity, negative = toxicity"
CC/C(=N\Nc1ccccc1)c1c(O)[nH]c(=O)[nH]c1=O,active: 3.26 µM,
CCCCOP(=O)(CN1CCOCC1)OCCCC,,inactive: 11.1%
CCOC(=O)c1c(N)n(CCCOC(=O)c2ccco2)c2nc3ccccc3nc12,active: 18.4 µM,
O=[N+]([O-])c1oc2ccc3ccccc3c2c1CCO,"inconclusive [cytotoxic, single point]",
CCn1c(=O)cc(SCC(=O)N2CCC3(CC2)OCCO3)c2ccccc21,,inactive: -12.5%
O=c1[nH]c(=S)[nH]c(O)c1/C=C1\C=Nc2ccccc21,"inconclusive [cytotoxic, single point]",
CNC(=O)Oc1ccc(N(C)C)cc1C(C)C,,inactive: -1.83%
Cc1ccc(OP(=O)(Nc2cccc(C)c2)Oc2ccc(C)cc2)cc1,"inconclusive [cytotoxic, partial curve]",
CC(=O)C1CCC2C3CCC4CC(O)CCC4(C)C3C(=O)CC12C (configuration not stated),,inactive: 8.47%
O=C(c1ccco1)c1cn(Cc2ccccc2Cl)c2ccccc12,"inconclusive [cytotoxic, single point]",
Cc1cc(C(=O)Nc2ccc(S(=O)(=O)N3CCCC3)cc2)cs1,"inconclusive [cytotoxic, single point]",
CN1CCC(N(C)c2nc(-c3ccc([N+](=O)[O-])cc3)nc3ccccc23)CC1,"inconclusive [cytotoxic, single point]",
NC(Cc1ccc(F)cc1)c1csc(Nc2ccccn2)n1 (configuration not stated),active: 23.1 µM,
COc1ccc2c(c1)[C@@]13CCC=C[C@H]1[C@@H](C2)NCC3,"inconclusive [cytotoxic, single point]",
Cc1cc(C(=O)CS(=O)c2ccc(F)cc2)cc(C)c1OC(=O)N(C)C (configuration not stated),,inactive: -0.0825%
CCOC(=O)c1ccc(N=Cc2c(O)n(-c3ccc(OC)cc3)c(=S)[nH]c2=O)cc1,"inconclusive [cytotoxic, single point]",
Oc1ccc(Cl)cc1Sc1cc(Cl)ccc1O,active: 20.6 µM,
Cc1ccc(OP2(=O)Nc3cc(C)c(C)cc3S2)cc1 (configuration not stated),"inconclusive [cytotoxic, single point]",
O=C1NC2C(O)C(O)C(O)C(O)C2c2cc3c(c(O)c21)OCO3 (configuration not stated),active: 0.231 µM,
O=S(=O)(c1ccccc1)N1CCCCC1c1cccnc1 (configuration not stated),"inconclusive [rising, single point]",
CCCC1(CCC)C(=O)NC(=NCc2ccccc2)NC1=O,"inconclusive [cytotoxic, single point]",
Cc1noc(C)c1CSCC(=O)Nc1ccc(C#N)c(Cl)c1,,inactive: 0.035%
